Measured values as given in PubChem BioAssay AID1347073 (National Center for Advancing Translational Sciences (NCATS), 2019).
Out of some 45,000 compounds screened, about 200 (0.44%) were called active. Inconclusive results (about 7%) are left out. Calls come from the whole dose curve; as a rule, active = well fitted activation curve with a large enough effect; inconclusive = small, poorly fitted or top-dose-only effect; inactive = no such curve, though single readings can be large or run the other way. This is one part of the list. Peptide text beside a SMILES is read from it. * marks the point of attachment. Boc = CC(C)(C)OC(=O)*

Test: qHTS of TDP-43 Inhibitors: NCGC Sytravon Library Screen; note: nearly all actives have a fitted effect of over 55% in size; for growth rescue (activation): 0% is about no effect
Details: yeast TDP-43 toxicity rescue, BacTiter-Glo growth, 24 h; series mostly up to 46.1 µM; growth rescue (activation): at the top concentration
In short: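 TDP-43-expressing yeast, pregrown in raffinose, seeded at OD600 0.02 in galactose medium with compound for 24 hr at 30 deg C. Growth read by BacTiter-Glo luminescence, so rescue of toxicity appears as activation.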
Potency is the fitted concentration of half-maximal effect.

| SMILES | growth rescue (activation) | Potency |
| --- | --- | --- |
| O=C(CSc1nccc2ccccc12)N1CCN(Cc2ccc3c(c2)OCO3)CC1 | inactive: -0.351% | – |
| O=C1CC2(CCCC2)C(=O)N1CN1CCN(S(=O)(=O)c2ccc(F)cc2F)CC1 | inactive: 12% | – |
| Cc1ccc(/C=N/NC(=O)C(O)c2ccccc2)o1 (stereo not drawn) | inactive: 9.49% | – |
| C=CCN1C(=NC(=O)CCC(=O)O)SC2CS(=O)(=O)CC21 (stereo not drawn) | inactive: -25.2% | – |
| O=C(Nc1ccccc1N1CCCCC1)c1ccc(OC(F)F)cc1 | inactive: 25.7% | – |
| CCOc1nc(C)cc(C)c1S(=O)(=O)c1ccc(Cl)cc1 | inactive: 9.97% | – |
| O=C(NCCCN1CCOCC1)C(=O)NCC1CCCO1 (stereo not drawn) | inactive: 8.03% | – |
| O=C(CN1C(=O)c2ccccc2S1(=O)=O)NCCSCc1cccc(Cl)c1 | inactive: -15.5% | – |
| CC(C)Oc1cc(F)ccc1-c1cc(C(=O)NCc2cccnc2)[nH]n1 | inactive: 19.8% | – |
| O=C(C1CC1)N1CCN(S(=O)(=O)c2ccc3c(c2)OCCO3)CC1 | inactive: 3.92% | – |
| Cc1cccc(C(=O)Nc2nnc(SCC(=O)NC3CC3)s2)c1 | inactive: 16.3% | – |
| O=C(CN(C(=O)c1csnn1)c1cccc(C(F)(F)F)c1)NCc1ccc(F)cc1 | inactive: 9.24% | – |
| O=C(COc1ccccc1)Nc1ccccc1NS(=O)(=O)c1cccs1 | inactive: 13.4% | – |
| Cc1cc(C(=O)C(C)OC(=O)C2=NNC(=O)CC2)c(C)n1-c1ccc(OC(F)F)cc1 (stereo not drawn) | inactive: 20.3% | – |
| COC(=O)C(Cc1ccccc1)NC(=O)C(CC(C)C)NC(=O)OC(C)(C)C (stereo not drawn) (Boc-Leu-Phe-OMe; configuration not given here) | inactive: 6.74% | – |
| Fc1ccc(C2c3[nH]c4ccccc4c3CCN2CCCn2cccn2)cc1 (stereo not drawn) | inactive: -24.4% | – |
| CC(C)CNc1ncnc2c1ncn2[C@H]1CN(Cc2ccc(-c3ccccc3)cc2)C[C@@H](CO)O1 | inactive: 1.04% | – |
| COc1ccc(COc2ccccc2C(=O)NCc2ccccc2)cc1F | inactive: 12.8% | – |
| COC(=O)c1ccc(N2CCN(C(C)=O)CC2)c(NC(=O)COc2ccccc2C)c1 | inactive: 12.1% | – |
| CC(C)N(C(=O)c1ccc(C(=O)Nc2ccc([N+](=O)[O-])cc2)cc1)C(C)C | inactive: -11.2% | – |
| COc1ccc(-c2cc(NC=O)c3ncc(-c4cccc(C(C)=O)c4)n3c2)cc1 | inactive: 7.97% | – |
| CC(=O)Nc1ccc(OCC[n+]2cccc(C(N)=O)c2)cc1 | inactive: 3.2% | – |
| O=C(O)C12CC3CC(C1)CC(n1ncc(N4CCN(c5ccccc5)CC4)c(Cl)c1=O)(C3)C2 | inactive: 4.06% | – |
| Cc1ccc(NC(=O)c2cc(S(=O)(=O)NCCC3=CCCCC3)ccc2F)cc1F | inactive: -2.44% | – |
| CC1=NN(C(=O)c2ccc(Cl)cc2)C(O)(c2ccccc2)C1 (stereo not drawn) | inactive: 12.9% | – |
| Cc1ccc(Cl)cc1N1CCN(C(=O)C2CCN(S(=O)(=O)c3c(C)nn(C)c3C)CC2)CC1 | inactive: 8.99% | – |
| COCCCN(CC(=O)O)S(=O)(=O)c1ccccc1 | inactive: 8.4% | – |

| SMILES | growth rescue (activation) | Potency |
| --- | --- | --- |
| CC(C)(C)C(=O)Nc1cc(C(F)(F)F)ccc1-n1ccnc1 | inactive: -3.59% | – |
| COc1ccc(NC(=O)c2cccc(OS(=O)(=O)N(C)C)c2)cc1 | inactive: 12.1% | – |
| Cc1nc2ccccc2c(=O)n1NC(=O)CCC(=O)O | inactive: 4.41% | – |
| CC(C)(C)C(=O)Nc1ccccc1C(=O)NCc1ccco1 | inactive: -2.91% | – |
| Cc1sc2ncn(CC(=O)NCCCC(=O)NCc3ccc(F)cc3)c(=O)c2c1C | inactive: 9.14% | – |
| CCOC(=O)c1ccc(NC(=O)c2cccc(S(=O)(=O)N3c4ccccc4CC3C)c2)s1 (stereo not drawn) | inactive: 14.3% | – |
| O=C1c2ccccc2C(=O)C12OC2c1ccc(Cl)cc1Cl (stereo not drawn) | inactive: 24.4% | – |
| COc1cccc(CC(=O)Nc2sc3c(c2C(N)=O)CCCC3)c1 | inactive: 16.5% | – |
| COc1cc(NC(=O)CSc2nnc(NC(C)C)s2)cc(OC)c1OC | inactive: 1.49% | – |
| COc1ccc(CN2CCN(C(C)C(=O)NC(C)c3ccc(F)cc3)CC2)cc1F (stereo not drawn) | inactive: -7.24% | – |
| Cc1ccccc1CC1(CO)CCCN(Cc2ccn[nH]2)C1 (stereo not drawn) | inactive: 15.2% | – |
| CC(CC(=O)O)CC(=O)Nc1nncs1 (stereo not drawn) | inactive: 5.86% | – |
| COc1ccc(NC(=O)CCc2nnc3n(C)c(=O)c4sccc4n23)cc1 | inactive: 1.45% | – |
| O=C(CCc1ccccc1)c1nnc(-c2ccccc2)o1 | inactive: -1.21% | – |
| COc1ccc(CCNC(=O)CC2C(=O)NCCN2CC(C)(C)C)cc1 (stereo not drawn) | inactive: 9.21% | – |
| Cc1ccc(NC(=O)CSC(C)C(=O)NCCc2ccccn2)cc1 (stereo not drawn) | inactive: -4.23% | – |
| c1ccc(-c2nc(-c3ccco3)n3ccccc23)cc1 | – | active: 12.6 µM |
| COc1ccc(C2=NNC(c3ccco3)=Nc3ccc(F)cc32)cc1 | inactive: 10.8% | – |
| COc1ccc(OC)c(/C=N/Nc2cc(C)nc(N3CCOCC3)n2)c1 | inactive: 11.6% | – |
| CS(=O)(=O)N(CC(=O)NCCSc1ccccn1)c1ccc(F)cc1 | inactive: -11.6% | – |
| Cc1ccc(CNC(=O)CN2CCN(c3ccc(F)cc3)CC2)cc1 | inactive: 5.56% | – |
| COc1cc(C(=O)O)cc(OC)c1OCc1cc(C(=O)O)oc1C | inactive: 2.47% | – |
| Cc1cccc(N2CCN(CC(=O)N(C3CCCC3)C3CCS(=O)(=O)C3)CC2)c1C (stereo not drawn) | inactive: 19.8% | – |
| COc1ccc(-c2cn3nc(SCC(=O)NC4CCCCC4)ccc3n2)cc1 | inactive: 2.25% | – |
| COc1cc2cc(CN(Cc3nnnn3Cc3ccco3)C3CCCCC3)c(=O)[nH]c2cc1OC | inactive: -1.41% | – |
| COC(=O)c1sc(NC(=O)c2ccc(C)o2)nc1C | inactive: -8.93% | – |
